Data as given in PubChem BioAssay AID624296 (National Center for Advancing Translational Sciences (NCATS), 2012).
About 9,900 (2.8%) of roughly 350,000 compounds were called active. This list was built around the results that the source calls inconclusive (neither active nor inactive); the mix of calls is not that of the screen. The call rests on the fitted dose curve; in most records, active means well fitted activation curve with a large enough effect; inconclusive means small, poorly fitted or top-dose-only effect; inactive means no such curve, though single readings can be large or run the other way. No potency is given beside an inconclusive call; the fits are too rough.

Experiment: A quantitative high throughput screen for small molecules that induce DNA re-replication in MCF 10a normal breast cells. Further: nearly all actives have a fitted effect of over 50% in size. On activity, positive = re-replication: % of control where 0% means no effect.
Details: MCF 10A DNA re-replication, Hoechst nuclear intensity, 48 h; activity, positive = re-replication: at 46.1 µM (top of the series)
Potency means the concentration at half of the fitted maximal effect; tags describe the fitted curve by direction and shape.

Compound	Potency	activity, positive = re-replication
COc1ccc2oc(C(=O)NCc3ccco3)c(C)c2c1	inactive	
CCCOc1ccc(C(=O)Nc2ccc3c(c2)OCCO3)cc1	inconclusive [activator, single point]	
O=C(Oc1c(-c2ccccc2)c(=O)n2c3c(cccc13)CC2)c1ccc(F)cc1	active: 25.9 µM	
O=C(NNc1cccc(Cl)c1)c1cccnc1Oc1ccccc1	inconclusive [activator, full curve, poor fit]	
CCc1ccccc1NC(=O)NNC(=O)CCc1ccccc1	inactive	
COc1cc(C(=O)O/N=C2\C=CC(=O)C(C)=C2)cc(OC)c1OC	inconclusive [activator, full curve]	
O=C(COC(=O)c1cncc(Br)c1)Nc1ccc(N2CCCCC2)cc1	inactive	
O=C(N/N=C/c1cccs1)c1cccc(S(=O)(=O)Nc2ccc(Cl)cc2)c1	inactive	
Cc1cc(C(=O)CSc2nc3ccccc3[nH]2)c(C)n1CC1CCCO1 (stereo not drawn)	inconclusive [activator, single point]	
COc1ccc(Oc2nc(-c3cccnc3)nc3ccccc23)cc1	inconclusive [activator, single point]	
O=C(Nc1ccccc1)C1=C[C@@H](C2CCCCC2)C[C@@H](OCc2ccc(CO)cc2)O1	active: 16.4 µM	
O=C(CN1CCCC1)Nc1ccccc1C(=O)c1ccccc1	inconclusive [activator, partial curve, poor fit]	
COc1ccc(CC(=O)OC(C)C(=O)Nc2ccc(Cl)cn2)cc1 (stereo not drawn)	inactive	
CC(CNC(=O)CCCn1ncn2c(cc3occc32)c1=O)c1ccccc1 (stereo not drawn)	inactive	
O=C(CCN1CCOCC1)c1ccc2c(c1)OCCO2	active: 6.51 µM	
CC(=O)NC1=NN(C(C)=O)C2(CCCCC2)S1	inconclusive [activator, partial curve, poor fit]	
COc1ccccc1Nc1nc(-c2sc(NC(=O)C(C)(C)C)nc2C)cs1	inactive	
COCc1[nH]nc2c1C(C1C=CCCC1)C(C#N)=C(N)O2 (stereo not drawn)	inconclusive [activator, single point]	
CN1OC[C@@H]2CN(Cc3ccc(Cl)cc3)[C@H](c3cccc(Br)c3)C[C@@H]21	inconclusive [activator, single point]	
COc1ccc(CC(=O)Nc2ccc(-c3cn4cccc(C)c4n3)cc2)cc1OC	inconclusive [activator, single point]	
CN(C)c1cccc(F)c1C(=O)NC(=O)Nc1ccc(Cl)cc1	active: 10.3 µM	
CCOC(=O)c1ccc(-c2csc(NC(=O)CN3CCC(C)CC3)n2)cc1	inconclusive [activator, single point]	
CO/N=C(/C(=O)N[C@@H]1C(=O)N2C(C(=O)O)=C(CSc3cnns3)CS[C@H]12)c1csc(N)n1	inactive	

Compound	Potency	activity, positive = re-replication
CC(=O)[C@H]1[C@H]([C@H](O)[C@H](O)CO)O[C@](O)(C(=O)O)C[C@@H]1O	inactive	
CCc1cc(C(=O)N/N=C/c2ccc(O)cc2)c2ccccc2n1	active: 23.1 µM	
Cc1ccc(/C=C2\SC(=S)N(CCCC(=O)Nc3cccnc3)C2=O)cc1	inconclusive [activator, single point]	
NNC(=O)c1oc2nc(-c3ccco3)cc(-c3ccco3)c2c1N	inconclusive [activator, single point]	
O=C(CCNC(=O)c1ccc(Br)cc1)NCc1ccccc1F	inconclusive [activator, full curve, poor fit]	
CCN(CC)c1ccc(S(=O)(=O)N2CCCCC2)cc1NC(=O)C1CSC2(C)CCC(=O)N12 (stereo not drawn)	inconclusive [activator, single point]	
Cc1[nH]nc2c1C(c1cn[nH]c1-c1ccc(F)cc1)C(C#N)=C(N)O2 (stereo not drawn)	inconclusive [activator, partial curve, poor fit]	
O=C1/C(=C\c2cccnc2)SC(=S)N1c1ccc(F)cc1	inconclusive [activator, single point]	
Cn1c2ccccc2c(=O)c2ccc(C#CC3(N)CCCCC3)cc21	inconclusive [activator, partial curve, poor fit]	
CC(C)(C)Sc1ccc([N+](=O)[O-])cc1C(=O)Nc1ccncc1	inconclusive [activator, partial curve]	
Cc1c(C(=O)Oc2cc(N)n(S(C)(=O)=O)n2)cccc1[N+](=O)[O-]	inconclusive [activator, partial curve, poor fit]	
CC(=O)Nc1ccc(Nc2nc(C(F)(F)F)nc3c2nnn3Cc2ccccc2Cl)cc1	inconclusive [activator, partial curve, poor fit]	
Cc1ccc(-c2nnc(N3CCN(c4ccccn4)CC3)c3ccccc23)cc1	inconclusive [activator, single point]	
Nc1c2c(nc3ccccc13)N(C1CCCCC1)CC2	active: 13 µM	
Cc1ccc(-n2ccc(=O)c(C(=O)O)n2)cc1	inconclusive [activator, partial curve, poor fit]	
CN(Cc1cccc(F)c1)C(=O)c1ccc(S(=O)(=O)N2CCOCC2)cc1	inactive	
COc1ccc(S(=O)(=O)N2CCC3(CC2)OCCN3S(=O)(=O)c2ccc(C)cc2)cc1OC	inconclusive [activator, partial curve, poor fit]	
CCNS(=O)(=O)c1ccc(CCC(=O)Nc2ccccc2)cc1	inactive	
COc1ccc(/C=C/C(=O)Nc2ccc(OC)nc2)cc1	inactive	
CCCNC(=O)c1ccc2nc(-c3ccccc3)c(-c3ccccc3)nc2c1	inconclusive [activator, partial curve, poor fit]	
CCOC(=O)/C(=C/C1=CC(=C/N(C)C)/C(=O)O1)C(C)=O	inconclusive [activator, single point]	
CS(=O)(=O)N1CCN(c2ccccc2NC(=O)c2ccc3c(c2)OCCO3)CC1	inactive	
CC(=O)NCCNC(=O)c1cccc(NS(=O)(=O)c2ccc3c(c2)OCCO3)c1	inactive	

Compound	Potency	activity, positive = re-replication
Cn1cc([N+](=O)[O-])c(C(=O)Nc2ccc(C3CCCCC3)cc2)n1	inconclusive [activator, partial curve, poor fit]	
Cc1cc(OCC(=O)Nc2cc(-c3nn4c(C)nnc4s3)ccc2C)ccc1Cl	inactive	
CCCc1nnc(NC(=O)CCS(=O)(=O)c2ccccc2)s1	inconclusive [activator, single point]	
CC(OC(=O)CN1C(=O)COc2ccccc21)C(=O)NCc1ccc(F)cc1 (stereo not drawn)	inactive	
CCOC(=O)C(=O)Cc1nc(OCc2ccccc2)cc(OCc2ccccc2)n1	inconclusive [activator, single point]	
CC(C)C[C@H](NC(=O)c1nc[nH]c1C(=O)NCCCCCNC(=O)OC(C)(C)C)C(=O)OCc1ccccc1	inconclusive [activator, partial curve, poor fit]	
CC(=O)Nc1cccc(NC(=O)CCNC(=O)c2ccc(Cl)cc2)c1	inactive	
CCOC(=O)c1c(-c2ccc(C)o2)csc1NC(=S)NC(=O)c1ccc(F)cc1	inconclusive [activator, partial curve]	
CN1/C(=C\C(=S)NC(=O)c2ccccc2Cl)C(C)(C)c2ccccc21	inconclusive [activator, partial curve]	
COc1ccc(/C=N/NC(=O)c2cc(C34CC5CC(CC(C5)C3)C4)[nH]n2)cc1OC	inconclusive [activator, single point]	
COc1cc(C(=O)NNC(=O)COc2cccc(F)c2)ccc1OCC(=O)N1CCOCC1	inactive	
Cc1ccc(NC(=O)COC(=O)c2ccccc2-c2nc3ccccc3s2)c(C)c1	inconclusive [activator, partial curve, poor fit]	
COc1ccccc1-n1cnc2cc(NS(=O)(=O)c3ccc(Br)cc3)ccc21	inconclusive [activator, partial curve, poor fit]	
CC[C@H]1OC(=O)[C@H](C)[C@@H](O[C@H]2C[C@@](C)(OC)[C@@H](O)[C@H](C)O2)[C@H](C)[C@@H](O[C@@H]2O[C@H](C)C[C@H](N(C)C)[C@H]2O)[C@](C)(O)C[C@@H](C)C(=NOCOCCOC)[C@H](C)[C@@H](O)[C@]1(C)O	inactive	
CCc1ccc(CNC(=O)C2CCCN(S(=O)(=O)N3CC(C)CC(C)C3)C2)cc1 (stereo not drawn)	inactive	
O=c1c2ccccc2nc(-c2ccc(Cl)cc2Cl)n1O	inconclusive [activator, full curve, poor fit]	
Cn1nc(-c2ccccc2)c(C(O)c2ccc(Cl)cc2)c1Cl (stereo not drawn)		inactive: 428% [at 0.0737 µM]
CC(CNC1CCCCC1)OC(=O)c1ccccc1 (stereo not drawn)	inactive	
CC1CCN(c2nc3c(c(=O)n(C)c(=O)n3C)n2CCSc2nc3ccccc3s2)CC1	inconclusive [activator, partial curve, poor fit]	
CC(C)Oc1ccc(Br)cc1/C=N\NC(N)=S	inconclusive [activator, partial curve, poor fit]	
CCN(CC)S(=O)(=O)c1ccc(C(=O)Nc2cc(S(=O)(=O)N3CCOCC3)ccc2O)cc1	inactive	
CCC1=C(OC(=O)N(CC)CC)N2C(=O)OC(=NCC3CC3)[C@]2(C)[C@H]2C1=CC[C@H]1C(=O)NC(=O)[C@H]12	inconclusive [activator, partial curve, poor fit]	
